According to PubChem BioAssay (NCATS):
Where “and” joins values, the source holds several entries; their conditions need not be identical. Equal entries are not always repeated. The inconclusive results got no clear call from the source; some entries with a clear call stand among them for comparison. A potency beside an inconclusive call is a rough fit, not a confirmed value. The source holds several records for some structures; these can differ, active in one and inactive in another. Calls of active or inactive are those of the source. Calls follow the shape of the dose curve; as a rule, active = well fitted inhibition curve with a large enough effect; inconclusive = small, poorly fitted or top-dose-only effect, or effect the other way; inactive = flat fitted curve, though single readings scatter.

Experiment: qHTS for Inhibitors of Plasmodium falciparum (GB4) proliferation (AID 504315); also: nearly all actives have a fitted effect of over 50% in size;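 as to activity change, negative = inhibition: 0% = DMSO vehicle and -100% = 0.29 µM artemisinin control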
Settings: P. falciparum GB4 in erythrocytes, SYBR Green DNA, 72 h; activity change, negative = inhibition: at 6.7 µM (top of the series)
Method in brief: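 Parasite growth measured as SYBR Green DNA fluorescence (ex 485, em 535 nm) after overnight lysis following 72 h culture at 37 °C, 0.3% parasitemia, 2.5% hematocrit. Values normalized against DMSO and 0.29 uM artemisinin controls, with plate-stack correction.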
Potency is read from the fitted curve at half-maximal effect; tags tell the direction and shape of the fitted curve.

SMILES	Potency	activity change, negative = inhibition
CCCC[C@]12Cc3c(ccc4ccccc34)[C@H](O1)C1=C(O2)C(=O)c2ccccc2C1=O	active: 1.69 µM	
COc1cc2c(cc1OC)[C@@H]1O[C@](CCCCN3C(=O)c4ccccc4C3=O)(C2)Oc2cc(C)n(-c3ccccc3)c(=O)c21	active: 1.35 µM	
Cc1ccccc1Nc1oc(-c2ccccc2)nc1CCc1ccccc1	inactive and active: 1.51 µM	
CC(C)CON=C1C[C@@H](O)[C@@H](O)[C@@H]2[C@H]3C(=O)N(C4CCCCC4)C(=O)[C@@H]3CC[C@H]12	inactive	
COC(=O)C1=C(C(=O)OC)[C@@H]2N(Cc3ccccc3)c3ccccc3[C@@]23C[C@@H](C(=O)OC)N(C(=O)NCCBr)C3=N1	inactive	
COc1ccc2c(c1)O[C@H](c1ccc3c(c1)OCO3)[C@@H](OC(=O)Nc1cc(OC)c(OC)c(OC)c1)C2=O	inactive	
CCCCCCC(=O)Cc1cc(OC)c(OC)cc1C=C(C(=O)OCC)C(=O)OCC	inconclusive: 0.0338 µM [activator, full curve, poor fit]	
CC(C)CON=C1C[C@@H](O)[C@@H](O)[C@@H]2[C@H]3C(=O)N(c4cccc(Oc5ccccc5)c4)C(=O)[C@@H]3CC[C@H]12	inactive	
Cc1cc2c(c(=O)n1-c1ccccc1)[C@H]1O[C@](c3ccsc3)(Cc3cc(C#N)ccc31)O2	inactive	
COc1ccc(OC[C@H]2CN3[C@H](c4ccc(Br)cc4)[C@H](C)CC[C@H]3C(=O)O2)cc1	inactive and inconclusive: 4.78 µM [inhibitor, partial curve, poor fit]	
C[C@H]1Cc2c(COc3ccccc3)nc3c(c2CO1)CN(C(=O)Nc1cccc(C#N)c1)CC3	inconclusive: 2.39 µM [inhibitor, single point] and inconclusive: 1.51 µM [inhibitor, single point]	
C=CC1=C2C=C(C3CC3)N(Cc3ccccc3)C=C2C(=O)C(C)(OC(=O)c2ccco2)C1=O (stereo unspecified)	inactive	
CC(Nc1oc(-c2ccccc2)nc1-c1ccccc1)c1ccccc1 (stereo unspecified)	inconclusive: 1.69 µM [inhibitor, partial curve] and inconclusive: 2.13 µM [inhibitor, single point]	
COC(=O)CC=C[C@@H](C)[C@H](OC)c1ccccc1Br	active: 1.51 µM	
C[C@@H]1CC[C@H]2C(=O)NC[C@@H](O)CN2[C@@H]1c1ccc(Br)cc1		inconclusive: 9.31% [activator]
C=CCN1c2ccccc2[C@]23C[C@@H](C(=O)OC)N(C(=O)CC(C)C)C2=NC(C(=O)OC)=C(C(=O)OC)[C@H]13	inconclusive: 1.2 µM [inhibitor, partial curve]	
COC(=O)CC1c2ccccc2C(Cc2ccc3c(c2)OCO3)=C(C)N1C(=O)OC (stereo unspecified)	inconclusive: 0.953 µM [inhibitor, partial curve]	
COc1cc2c(cc1OC)[C@@H]1O[C@](c3ccsc3)(C2)Oc2cc(C)n(Cc3ccccc3)c(=O)c21	inconclusive: 1.9 µM [inhibitor, single point]	
CC1(OC(=O)c2ccc(Cl)nc2)C(=O)C=C2C=C(C3CC3)OC=C2C1=O (stereo unspecified)	inactive	
COc1ccc(-c2nc3c(c4c2C[C@H](c2ccccc2)OC4)CN(C(=O)C2CC2)CC3)c(C)c1	inactive	
CCN1C(=O)NC(c2ccco2)C(C(=O)OC)=C1C (stereo unspecified)	inactive	
C[C@H]1C[C@@H](C)O[C@@]2(C1)C(=O)N(Cc1ccccc1C(F)(F)F)c1ccccc12	inconclusive: 4.26 µM [inhibitor, single point]	
CC1(C)CC(=O)C2=C(C1)O[C@@]1(CCCCN3C(=O)c4ccccc4C3=O)Cc3ccccc3[C@H]2O1	inconclusive: 2.13 µM [inhibitor, single point]	
CCN1C(=NCc2cc(OC)c(OC)c(OC)c2)N[C@@H](c2ccccc2)[C@H](C(=O)OC)[C@H]1C	inconclusive: 0.0004 µM [inhibitor]	
CC(=O)OC[C@H]1O[C@H](C#Cc2ccc(C(C)(C)C)cc2)C=C[C@H]1OC(C)=O	inconclusive: 2.13 µM [inhibitor, single point]	
CC1(C)O[C@@H](C(O)(c2cc(F)c(F)c(F)c2)c2cc(F)c(F)c(F)c2)[C@H](C(O)(c2cc(F)c(F)c(F)c2)c2cc(F)c(F)c(F)c2)O1	active: 0.953 µM	
